Structures can show the parent of a compound that is named as a salt. ± gives the standard deviation of the averaged measurements. Over roughly 2,600 compounds, “MBP+ mature oligodendrocyte number relative to DMSO vehicle control” has its median near -0.34; the highest 2% begin near 13. This is one part of the list.
Each compound was assayed on jimpy (Plp1 jimpy) mouse iPSC-derived oligodendrocyte progenitor cells (assay: MBP+ mature oligodendrocyte number relative to DMSO vehicle control (SDs above negative control mean); higher = more surviving jimpy oligodendrocytes (rescue)). Settings: 10 µM; 3 days.
`CCCCc1oc2ccccc2c1C(=O)c1cc(I)c(OCCN(CC)CC)c(I)c1` [Amiodarone hydrochloride] was tested, and the “MBP+ mature oligodendrocyte number” value was less than -3.34.
For `CCCCc1oc2ccccc2c1C(=O)c1cc(I)c(OCCN(CC)CC)c(I)c1` [Amiodarone HCl], the “MBP+ mature oligodendrocyte number” value was less than -5.15.
In the case of `CN1CCN(c2ccc3nc(-c4c(N)c5c(F)cccc5[nH]c4=O)[nH]c3c2)CC1` [Dovitinib (TKI-258, CHIR-258)], the “MBP+ mature oligodendrocyte number” value is reported as -6.35.
For `CN1CCN(c2ccc3nc(-c4c(N)c5c(F)cccc5[nH]c4=O)[nH]c3c2)CC1` [Dovitinib (TKI-258) Dilactic Acid], the “MBP+ mature oligodendrocyte number” value was less than -6.01.
`O=c1[nH]c(=O)n([C@H]2C[C@H](O)[C@@H](CO)O2)cc1I` [Idoxuridine] was tested, and the “MBP+ mature oligodendrocyte number” value was 0.973.
`Cc1cccc(N(C)C(=S)Oc2ccc3ccccc3c2)c1` [Tolnaftate] was tested, and the “MBP+ mature oligodendrocyte number” value was 1.42.
With `C=CCNC1=C2C[C@@H](C)C[C@H](OC)[C@H](O)[C@@H](C)/C=C(\C)[C@H](OC(N)=O)[C@@H](OC)/C=C\C=C(/C)C(=O)NC(=CC1=O)C2=O` [17-AAG (Tanespimycin)] the “MBP+ mature oligodendrocyte number” value was -6.44.
For `N[C@@H](COP(=O)(O)O)C(=O)O` [O-Phospho-L-serine], the “MBP+ mature oligodendrocyte number” value was 0.0686.
For `COc1ccc(-c2ccc3cc(C(=O)O)ccc3c2)cc1C12CC3CC(CC(C3)C1)C2` [Adapalene], the “MBP+ mature oligodendrocyte number” value was 0.807.
In the case of `O=C(O)c1cc2cc(F)ccc2[nH]1` [5-Fluoroindole-2-carboxylic acid], the “MBP+ mature oligodendrocyte number” value is reported as -0.708.
With `NCCc1ccc(O)c(O)c1` [Dopamine hydrochloride] the “MBP+ mature oligodendrocyte number” value was 10.5.
`NCCc1ccc(O)c(O)c1` [Dopamine HCl] was tested, and the “MBP+ mature oligodendrocyte number” value was 0.0594.
`C[C@H](Cc1ccc(O)c(O)c1)[C@@H](C)Cc1ccc(O)c(O)c1` was tested, and the “MBP+ mature oligodendrocyte number” value was less than -3.97.
`COc1ccccc1CN[C@H]1CCCN[C@H]1c1ccccc1` was tested, and the “MBP+ mature oligodendrocyte number” value was -0.711.
In the case of `NC(N)=NC(N)=Nc1ccccc1` [1-Phenylbiguanide], the “MBP+ mature oligodendrocyte number” value is reported as 0.289.
For `Cc1c(-c2ccc(-c3ccccc3F)cc2)nc2ccc(F)cc2c1C(=O)O` [Brequinar sodium salt hydrate], the “MBP+ mature oligodendrocyte number” value was 2.47.
`NC(=O)c1ccccc1` [Benzamide] was tested, and the “MBP+ mature oligodendrocyte number” value was -1.22.
`CN(Cc1cc(Br)cc(Br)c1N)C1CCCCC1` [Bromhexine HCl] was tested, and the “MBP+ mature oligodendrocyte number” value was 12.3.
`C[C@H](CS)C(=O)N1CCC[C@H]1C(=O)O` [Captopril] was tested, and the “MBP+ mature oligodendrocyte number” value was -0.548 ± 0.12.
For `Cn1cnc2c(F)c(Nc3ccc(Br)cc3Cl)c(C(=O)NOCCO)cc21` [Selumetinib (AZD6244)], the “MBP+ mature oligodendrocyte number” value was -2.51.
For `Nc1nc(N)c2nc(-c3cccc(O)c3)c(-c3cccc(O)c3)nc2n1`, the “MBP+ mature oligodendrocyte number” value was -1.99.
For `CN1CCN(C(=O)c2cc3cc(Cl)ccc3[nH]2)CC1`, the “MBP+ mature oligodendrocyte number” value was 1.14.
With `CCCN(CC1CC1)c1nc(C)nc(Nc2c(Cl)cc(Cl)cc2Cl)c1Cl` the “MBP+ mature oligodendrocyte number” value was less than -4.47.
With `COc1ccc(CNc2nc(N3CCC[C@H]3CO)ncc2C(=O)NCc2ncccn2)cc1Cl` [Avanafil] the “MBP+ mature oligodendrocyte number” value was 7.92.
In the case of `Nc1ncnc2c1ncn2C1CCCC1` [9-cyclopentyladenine], the “MBP+ mature oligodendrocyte number” value is reported as -1.18.
With `O=C1NC(c2cccc([N+](=O)[O-])c2)=CCN1c1ccccc1O` [Icilin] the “MBP+ mature oligodendrocyte number” value was 3.07.
With `COc1cc(N)c(Cl)cc1C(=O)OCCN1CCCCC1` the “MBP+ mature oligodendrocyte number” value was -3.81.
With `Cc1c(Nc2ncccc2C(=O)O)cccc1C(F)(F)F` [Flunixin Meglumin] the “MBP+ mature oligodendrocyte number” value was 1.85.
`CC[C@H](c1ccc(O)cc1)[C@@H](CC)c1ccc(O)cc1` [Hexestrol] was tested, and the “MBP+ mature oligodendrocyte number” value was -0.0525.
With `CCCCCC(O)CCCC(=O)O` (stereo not drawn) [5-hydroxydecanoic acid sodium] the “MBP+ mature oligodendrocyte number” value was 0.136.
For `OC[C@@H](O)CN1CCN(c2ccccc2)CC1` [Levodropropizine], the “MBP+ mature oligodendrocyte number” value was 1.34.
With `N#CC1(c2ccc(NC(=O)c3cccnc3NCc3ccncc3)cc2)CCCC1` [Apatinib] the “MBP+ mature oligodendrocyte number” value was 2.86.
With `Cc1ccc(C(=O)Cn2c3c(sc2=N)CCCC3)cc1` [Pifithrin-? (PFT?)] the “MBP+ mature oligodendrocyte number” value was 17.
In the case of `CC(C)(C)NC(=O)[C@H]1CC[C@H]2[C@@H]3CC[C@H]4NC(=O)C=C[C@]4(C)[C@H]3CC[C@]12C` [Finasteride], the “MBP+ mature oligodendrocyte number” value is reported as 2.12.
`C=CC[N+]1([C@H]2C[C@H]3[C@@H]4CC[C@H]5C[C@H](O)[C@@H](N6CCOCC6)C[C@]5(C)[C@H]4CC[C@]3(C)[C@H]2OC(C)=O)CCCC1` [Rocuronium Bromide] was tested, and the “MBP+ mature oligodendrocyte number” value was 1.42.
With `Cc1ccc(C(=O)N(CCCN)[C@@H](c2oc3cc(Cl)ccc3c(=O)c2Cc2ccccc2)C(C)C)cc1` the “MBP+ mature oligodendrocyte number” value was less than -4.81.
In the case of `Nc1nc(N)c2nc(-c3ccccc3)c(N)nc2n1` [Triamterene], the “MBP+ mature oligodendrocyte number” value is reported as -1.85 ± 0.21.
With `C=C1CC[C@H](O)C/C1=C/C=C1\CCC[C@]2(C)[C@@H]([C@H](C)/C=C/[C@H](C)C(C)C)CC[C@@H]12` [Vitamin D2] the “MBP+ mature oligodendrocyte number” value was 21.5.
In the case of `CCCCOc1ccc(C(=O)CCN2CCCCC2)cc1` [Dyclonine HCl], the “MBP+ mature oligodendrocyte number” value is reported as -1.91.
`O=C(O)COc1ccc(C(=O)c2cccs2)c(Cl)c1Cl` [Tienilic acid] was tested, and the “MBP+ mature oligodendrocyte number” value was -0.904.
`C=C1C(=O)O[C@H]2[C@H]1CC/C(C)=C/CC[C@@]1(C)O[C@@H]21` [Parthenolide] was tested, and the “MBP+ mature oligodendrocyte number” value was less than -3.97.
With `C=C1C(=O)O[C@H]2[C@H]1CC/C(C)=C/CC[C@@]1(C)O[C@@H]21` [(-)-Parthenolide] the “MBP+ mature oligodendrocyte number” value was less than -4.81.
`COc1ccc(CCn2nnnc2C2(c3ccc(C)cc3)CC2)cc1` [Mephetyl tetrazole] was tested, and the “MBP+ mature oligodendrocyte number” value was 1.5.
With `COc1ccc(CCC(=O)Nc2nc3ccc(Cl)cc3s2)cc1OC` the “MBP+ mature oligodendrocyte number” value was 6.4.
`CN1[C@@H]2CC[C@H]1C[C@@H](OC(=O)C(O)c1ccccc1)C2` (mixture of isomers) [DL-Homatropine hydrobromide] was tested, and the “MBP+ mature oligodendrocyte number” value was 3.48.
With `O=[N+]([O-])c1cn2c(n1)OC[C@@H](OCc1ccc(OC(F)(F)F)cc1)C2` the “MBP+ mature oligodendrocyte number” value was 0.545.
For `Cn1nnc2c(C(N)=O)ncn2c1=O` [Temozolomide], the “MBP+ mature oligodendrocyte number” value was 1.16.
`CC(C)(C)CC(C)(C)c1ccc(OCCOCC[N+](C)(C)Cc2ccccc2)cc1` [Benzethonium Chloride] was tested, and the “MBP+ mature oligodendrocyte number” value was less than -6.35.
`CC(C)NCC(O)COc1cccc2[nH]ccc12` (stereo not drawn) [Pindolol] was tested, and the “MBP+ mature oligodendrocyte number” value was -0.0098.
For `CC(CN(C)C)CN1c2ccccc2CCc2ccccc21` (stereo not drawn) [Trimipramine maleate], the “MBP+ mature oligodendrocyte number” value was -3.5.
`Cn1c(N2CCCCS2(=O)=O)nc(C(=O)NCc2ccc(F)cc2)c(O)c1=O` was tested, and the “MBP+ mature oligodendrocyte number” value was less than -6.7.
`COC(=O)[C@H]1[C@H]2C[C@H]3c4[nH]c5ccccc5c4CCN3C[C@H]2CC[C@@H]1O` [Rauwolscine hydrochloride] was tested, and the “MBP+ mature oligodendrocyte number” value was -0.675.
`COC(=O)C(C)(N)Cc1ccc(O)cc1` (racemic) [alpha-Methyl-DL-tyrosine methyl ester hydrochloride] was tested, and the “MBP+ mature oligodendrocyte number” value was -1.15.
With `Nc1ncnc2c1ncn2[C@@H]1O[C@@H]2COP(=O)(O)O[C@H]2[C@H]1O` [Adenosine 3',5'-cyclic monophosphate] the “MBP+ mature oligodendrocyte number” value was 0.785.
For `C[N+](C)(C)CC(O)CC(=O)[O-]` (racemic) [DL-Carnitine HCl], the “MBP+ mature oligodendrocyte number” value was 5.65.
`CC(C)C(=O)c1c(C(C)C)nn2ccccc12` [Ibudilast] was tested, and the “MBP+ mature oligodendrocyte number” value was -0.858.
For `C[N+](C)(C)C[C@H](O)CC(=O)[O-]` [L-carnitine], the “MBP+ mature oligodendrocyte number” value was 3.02.
In the case of `CC[C@]1(O)C[C@@H]2CN(CCc3c([nH]c4ccccc34)[C@@](C(=O)OC)(c3cc4c(cc3OC)N(C)[C@H]3[C@@](O)(C(=O)OC)[C@H](OC(C)=O)[C@]5(CC)C=CCN6CC[C@]43[C@@H]65)C2)C1` [Vinblastine], the “MBP+ mature oligodendrocyte number” value is reported as -6.35.
With `CC[C@]1(O)C[C@@H]2CN(CCc3c([nH]c4ccccc34)[C@@](C(=O)OC)(c3cc4c(cc3OC)N(C)[C@H]3[C@@](O)(C(=O)OC)[C@H](OC(C)=O)[C@]5(CC)C=CCN6CC[C@]43[C@@H]65)C2)C1` [Vinblastine sulfate salt] the “MBP+ mature oligodendrocyte number” value was less than -3.85.
`CCN(CCCc1ccccc1)CCCc1ccccc1` [Alverine Citrate] was tested, and the “MBP+ mature oligodendrocyte number” value was 12.2.
With `Nc1nccc2c1ncn2[C@@H]1O[C@H](CO)[C@@H](O)[C@H]1O` [3-deazaadenosine] the “MBP+ mature oligodendrocyte number” value was -1.07.
With `N[C@@H](Cc1ccc(F)cc1)C(=O)O` [p-Fluoro-L-phenylalanine] the “MBP+ mature oligodendrocyte number” value was 0.816.
With `O=C(Nc1ccc2[nH]ncc2c1)C1CCC1` [Rhodblock 6] the “MBP+ mature oligodendrocyte number” value was -1.53.
In the case of `Cn1cnc(N)c2ncnc1-2` [3-Methyladenine], the “MBP+ mature oligodendrocyte number” value is reported as 2.88.
For `CCCCC#Cc1nc(NC)c2ncn([C@@H]3O[C@H](CO)[C@@H](O)[C@H]3O)c2n1`, the “MBP+ mature oligodendrocyte number” value was -1.1.
For `CCOc1ncc(S(=O)(=O)N2CCN(CC)CC2)cc1-c1nc(=O)c2nn(CCOC)c(CC)c2[nH]1` [Gisadenafil besylate salt], the “MBP+ mature oligodendrocyte number” value was 0.47.
For `CC(C)=CCC/C(C)=C/COc1ccc2ccc(=O)oc2c1` [Auraptene], the “MBP+ mature oligodendrocyte number” value was -0.783.
`COc1cc(CC(=O)O)ccc1O` [4-Hydroxy-3-methoxyphenylacetic acid] was tested, and the “MBP+ mature oligodendrocyte number” value was 0.45.
For `O=S(=O)(O)CCSSCCS(=O)(=O)O` [Dimesna], the “MBP+ mature oligodendrocyte number” value was 1.85.
`CCCC(C(=O)OCCN(CC)CC)(c1ccccc1)c1ccccc1` [SKF-525A hydrochloride] was tested, and the “MBP+ mature oligodendrocyte number” value was -3.42.
With `CO[C@H]1C(=O)[C@]2(C)[C@@H](OC)C[C@H]3OC[C@@]3(OC(C)=O)[C@H]2[C@H](OC(=O)c2ccccc2)[C@]2(O)C[C@H](OC(=O)[C@H](O)[C@@H](NC(=O)OC(C)(C)C)c3ccccc3)C(C)=C1C2(C)C` [Cabazitaxel] the “MBP+ mature oligodendrocyte number” value was -3.71.
For `Clc1ccc(COC(Cn2ccnc2)c2ccc(Cl)cc2Cl)cc1` (stereo not drawn) [Econazole nitrate], the “MBP+ mature oligodendrocyte number” value was 5.37.
For `Clc1ccccc1C(c1ccccc1)(c1ccccc1)n1ccnc1` [Clotrimazole], the “MBP+ mature oligodendrocyte number” value was 15.7 ± 1.2.
`NC(=O)NO` [Hydroxyurea] was tested, and the “MBP+ mature oligodendrocyte number” value was 0.603 ± 0.14.
`CCN1CCCC1CNC(=O)c1cc(S(N)(=O)=O)ccc1OC` (racemic) [(±)-Sulpiride] was tested, and the “MBP+ mature oligodendrocyte number” value was 1.07.
In the case of `NC[C@H]1CC[C@H](C(=O)O)CC1` [Tranexamic Acid], the “MBP+ mature oligodendrocyte number” value is reported as 2.68.
For `C=CCc1ccccc1OCC(O)CNC(C)C` (stereo not drawn) [Alprenolol hydrochloride], the “MBP+ mature oligodendrocyte number” value was -0.119.
For `CC(=O)OC(C)C[N+](C)(C)C` (stereo not drawn) [Acetyl-beta-methylcholine chloride], the “MBP+ mature oligodendrocyte number” value was 0.47.
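Note: 10 µM single dose with 3-day oligodendrocyte differentiation.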
